The target of experiment [1] is T1, FRQ Δ149–193, V5H6-tagged (Neurospora crassa) (UniProt P19970).
T1 sequence: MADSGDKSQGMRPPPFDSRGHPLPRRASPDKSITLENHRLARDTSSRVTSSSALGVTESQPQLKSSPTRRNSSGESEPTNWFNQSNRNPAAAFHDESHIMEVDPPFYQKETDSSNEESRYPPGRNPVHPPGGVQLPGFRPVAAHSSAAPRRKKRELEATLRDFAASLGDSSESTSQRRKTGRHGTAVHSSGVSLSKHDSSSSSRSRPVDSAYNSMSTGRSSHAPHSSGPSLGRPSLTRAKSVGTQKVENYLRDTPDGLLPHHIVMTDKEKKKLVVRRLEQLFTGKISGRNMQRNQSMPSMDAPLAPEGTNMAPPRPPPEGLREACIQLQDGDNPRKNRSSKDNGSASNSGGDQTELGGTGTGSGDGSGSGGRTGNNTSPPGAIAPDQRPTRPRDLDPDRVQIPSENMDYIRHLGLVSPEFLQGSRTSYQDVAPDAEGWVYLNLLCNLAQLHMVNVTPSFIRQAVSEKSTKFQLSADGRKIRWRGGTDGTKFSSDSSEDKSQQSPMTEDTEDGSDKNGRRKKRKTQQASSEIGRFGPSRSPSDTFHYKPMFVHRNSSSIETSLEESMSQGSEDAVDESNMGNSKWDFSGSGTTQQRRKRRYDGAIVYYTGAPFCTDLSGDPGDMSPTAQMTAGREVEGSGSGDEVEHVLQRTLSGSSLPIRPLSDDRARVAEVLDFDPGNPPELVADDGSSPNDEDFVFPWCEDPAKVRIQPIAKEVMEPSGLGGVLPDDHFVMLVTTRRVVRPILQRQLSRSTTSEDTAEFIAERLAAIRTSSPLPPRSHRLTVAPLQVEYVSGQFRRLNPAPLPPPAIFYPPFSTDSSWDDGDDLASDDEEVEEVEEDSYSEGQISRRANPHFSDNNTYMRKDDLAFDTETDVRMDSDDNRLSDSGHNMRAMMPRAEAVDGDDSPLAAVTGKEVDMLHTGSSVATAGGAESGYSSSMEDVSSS
Nature of the experiment: co-IP; V5H6-tagged FRQ (wild type or mutant) pulled down with V5 agarose from Neurospora lysate (cultures in the light, 25 °C); 50 mM Hepes pH 7.4, 137 mM NaCl, 10% glycerol, 0.4% NP-40; 4 °C, 2 h; Western blot with FRQ, FRH, WC-1 and WC-2 antibodies. (In general: In western blotting, separated proteins are transferred to a membrane and probed.)

For experiment [2], the target named is T2, FRQ Δ200–249, V5H6-tagged (Neurospora crassa) (UniProt P19970).
T2 sequence: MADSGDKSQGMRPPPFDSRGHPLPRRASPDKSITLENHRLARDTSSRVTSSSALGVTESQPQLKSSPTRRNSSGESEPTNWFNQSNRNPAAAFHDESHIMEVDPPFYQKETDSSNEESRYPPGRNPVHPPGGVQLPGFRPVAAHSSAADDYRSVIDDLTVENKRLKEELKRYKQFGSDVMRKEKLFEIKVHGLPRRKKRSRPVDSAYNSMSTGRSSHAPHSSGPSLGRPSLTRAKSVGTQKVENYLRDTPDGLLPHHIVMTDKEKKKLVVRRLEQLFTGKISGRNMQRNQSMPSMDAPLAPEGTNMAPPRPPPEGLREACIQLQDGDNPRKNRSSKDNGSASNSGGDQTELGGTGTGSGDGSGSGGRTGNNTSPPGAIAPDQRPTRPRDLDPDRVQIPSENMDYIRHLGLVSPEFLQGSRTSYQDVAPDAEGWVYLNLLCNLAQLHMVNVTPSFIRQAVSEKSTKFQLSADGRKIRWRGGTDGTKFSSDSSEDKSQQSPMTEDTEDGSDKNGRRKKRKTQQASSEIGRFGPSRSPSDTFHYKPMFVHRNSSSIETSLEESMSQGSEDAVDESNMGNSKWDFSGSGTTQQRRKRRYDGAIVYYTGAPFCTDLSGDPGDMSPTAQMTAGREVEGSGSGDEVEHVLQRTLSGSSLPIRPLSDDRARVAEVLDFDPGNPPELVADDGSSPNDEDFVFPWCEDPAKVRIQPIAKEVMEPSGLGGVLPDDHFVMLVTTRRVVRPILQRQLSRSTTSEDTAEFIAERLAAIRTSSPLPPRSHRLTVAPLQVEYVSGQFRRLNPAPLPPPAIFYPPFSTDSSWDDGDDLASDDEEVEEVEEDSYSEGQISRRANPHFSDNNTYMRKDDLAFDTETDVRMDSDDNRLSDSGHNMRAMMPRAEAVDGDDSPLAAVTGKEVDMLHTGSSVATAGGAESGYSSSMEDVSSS
The description is as above.

Results are given in words; binding and its absence hold for the method and conditions named. Binding seen in cells or lysates may run through a third protein. Tags and fused reporters may be left off the sequences shown.

B1: White Collar-2 (WC-2) (protein, UniProt P78714 1-530)
chain: MSHGQPPPGSSMYGFGAMGMGSGMGSGMGSGMGTGMGTGMGTGMSASQMTSDPQDMMSLLDTSVFPGFDGMSMSLDVGDSMSNPFTPVSVPPPLPAGNAGPSHVGVCGGHGAPDQLFSPDDLIATSMSSAGPMIATPTTTTSGPSGGPSSGGGSTLTEFTKRRNWPAKVVEELQDWEHILDANGRIKHVSPSVEPLTGYKPPEIIDLFLRDLIHPDDVGVFTAELNEAIATGSQLRLFYRFRKKDGNWTIFETVGHAHIAAAKFAPNPQNQSPFCQAVFMMARPYPTKNAGLLDSFLEHKIENERLKRRIAELRREEQEEQEESHRTWRMSQEGRSDVTPSDDTATQMGMTPFYIPMNAQADVMMPPPSQPASSLNIALTRENLEGIAGSRPDSIREKMLRYEGNHADTIEMLTGLKYQEGERSHGITTGNASPTLIKGDAGIAIPLDRDPRTGEKKKKIKVAEEYVCTDCGTLDSPEWRKGPSGPKTLCNACGLRWAKKEKKKNANNNNNGGGIGGHNDIHTPMGDHMG
For B1, the binding entry in experiment [1] and in experiment [2] was “no binding” each time.

(Values after publication PMC10320511.)
